Measured values reported in PMC10484922 (2023).

Target: T1, Interleukin-1R1(21–337)-His6 (human, UniProt P14778 21-337)
T1 chain: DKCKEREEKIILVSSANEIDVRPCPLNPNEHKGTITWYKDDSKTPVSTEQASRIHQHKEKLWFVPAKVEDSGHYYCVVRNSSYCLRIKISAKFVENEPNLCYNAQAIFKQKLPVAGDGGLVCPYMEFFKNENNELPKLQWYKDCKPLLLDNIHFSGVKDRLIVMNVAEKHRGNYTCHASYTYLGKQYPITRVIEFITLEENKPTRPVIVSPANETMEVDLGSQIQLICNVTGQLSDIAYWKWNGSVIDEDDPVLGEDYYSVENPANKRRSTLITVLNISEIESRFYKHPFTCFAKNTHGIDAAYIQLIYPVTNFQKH
Assay: SPR

B1: hIL-1β^V47A-His6 (ligand)
chain: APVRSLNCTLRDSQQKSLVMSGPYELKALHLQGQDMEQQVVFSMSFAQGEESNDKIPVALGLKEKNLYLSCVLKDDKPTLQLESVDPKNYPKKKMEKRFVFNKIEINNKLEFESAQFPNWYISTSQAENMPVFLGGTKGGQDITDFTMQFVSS
Kd: 3.9 nM
